Data taken from publication PMC11653366 (2024).

How the values were obtained:
[1] = molecular target: T1, F*-PLLP; assay: fluorescence anisotropy
T1 chain: LASRPLPLLP

[2] = molecular target: T2, F*-p40; assay: fluorescence anisotropy
T2 chain: APTYSPPPPP

B1: W122C SrcAbl SH3 84-145 (protein)
chain: GGVTTFVALYDYVASGDNDLSFKKGERLQIVNNHNGEWCLAHSLSTGQTGYIPSNYVAPSDS
[1]
  Kd: > 1000 µM
[2]
  Kd: 450 µM
